Results from PubChem BioAssay AID1347073 (National Center for Advancing Translational Sciences (NCATS), 2019).
Where “and” joins values, the source holds several entries; their conditions need not be identical. Equal values may be shown once. The campaign covered roughly 45,000 compounds. About 200 (0.44%) were called active. Inconclusive results (about 7%) are left out. Calls follow the shape of the dose curve; as a rule, active = well fitted activation curve with a large enough effect; inconclusive = small, poorly fitted or top-dose-only effect; inactive = no such curve, though single readings can be large or run the other way. The list shows a part of the results.

Test: qHTS of TDP-43 Inhibitors: NCGC Sytravon Library Screen; also: 0% is about no effect; nearly all actives have a fitted effect of over 55% in size
Conditions: yeast TDP-43 toxicity rescue, BacTiter-Glo growth, 24 h; at 46.1 µM (top of the series)
Method in brief: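 TDP-43-expressing yeast, pregrown in raffinose, seeded at OD600 0.02 in galactose medium with compound for 24 hr at 30 deg C. Growth read by BacTiter-Glo luminescence, so rescue of toxicity appears as activation.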

SMILES | growth rescue (activation)
Cc1ccc(-n2c(O)c(C=NC3CCCCC3N)c(=O)[nH]c2=O)cc1C (configuration not stated) | inactive: 0.141%
CCC(=O)N1N=C(c2c(O)n(CCc3ccccc3)c(=O)[nH]c2=O)CC1c1ccc(OC)c(OC)c1 (configuration not stated) | inactive: 19.8%
Cc1ccc(N2Cc3ccccc3C2=N)cc1[N+](=O)[O-] | inactive: 8.36%
CCN(CC)c1ccc(CNCCc2ccc(F)cc2)cc1 | inactive: -0.175%
O=c1[nH]c(=S)[nH]c(O)c1C(c1ccccn1)c1c(O)[nH]c(=S)[nH]c1=O | inactive: -3.1%
COc1cc(/C=C/c2nc3ccccc3c(=O)n2-c2cccc(O)c2)ccc1O | inactive: 2.73%
CC1N=C(c2ccccc2Cl)c2cc(Br)ccc2NC1=O (configuration not stated) | inactive: -2.73%
COc1ccc(-n2c(O)c(C=NCCN3CCN(C(C)=O)CC3)c(=O)[nH]c2=S)cc1 | inactive: -11.8%
O=C1CN=C(c2cccc(Br)c2)c2cc(Br)ccc2N1 | inactive: -10.1%
O=c1[nH]c(=S)[nH]c(O)c1N=Nc1ccc2c(c1)OCCO2 | inactive: -20.6%
O=C(O)COc1ccccc1/C=C1\C(=O)NC(=O)N(CCC2=CCCCC2)C1=O | inactive: 7.11%
O=C(c1ccccc1F)N1CCC2(CC1)OCCO2 | inactive: 1.21%
Cc1cccn2c(=O)c3c(nc12)N1CCCCC1C1(C3)C(=O)N(C)C(=O)N(C)C1=O (configuration not stated) | inactive: 12.6%
Cc1ccc2c(CN3CC=C(c4ccccc4)CC3)cc(=O)oc2c1C | inactive: -15.2%
CC[C@]12C=CCN3CCC4(c5cc(Br)c(OC)cc5N(C)C4[C@@](O)(C(=O)OC)[C@@H]1OC(C)=O)C32 (some centres not stated) | inactive: -4.65%
COc1ccc(-n2nc(C(=O)NCC(=O)N3CCC4(CC3)OCCO4)c3ccccc3c2=O)cc1OC | inactive: 3.96%
Cc1ccc(NP(=O)(Oc2ccccc2)Oc2ccccc2)cc1 | inactive: -9.9%
O=C(Nc1ccc(Br)cc1C(=O)c1ccccc1Cl)c1ccccc1F | inactive: -4.09%
C/C(=N\NP(=S)(c1ccccc1)c1ccccc1)c1ccc(O)cc1O | inactive: 8.57%
O=Cc1c(C(=O)O)n(Cc2ccccc2F)c2ccccc12 | inactive: 0.0297%
CCCn1cc(C(=O)O)cn1 | inactive: -23.5%
Cc1c2cnn(CC(=O)N3CCC4(CC3)OCCO4)c(=O)c2c(C)n1Cc1ccccc1 | inactive: 12.3%
COc1ccc(CCn2c(O)c(C=Nc3ccccc3F)c(=O)[nH]c2=O)cc1OC | inactive: 6.67%

SMILES | growth rescue (activation)
O=C(O)C1C2c3ccccc3C(c3ccccc32)C1C(=O)Nc1ccccc1 (configuration not stated) | inactive: 5.61%
CCOC(=O)CSCCOc1ccc(C=C2C(=O)NC(=O)NC2=O)cc1OC | inactive: 10.8%
CC1CN=C(NCc2ccncc2)S1 (configuration not stated) | inactive: -10.6%
COc1ccc(C(=O)C2CCCN(Cc3ccon3)C2)c(OC)c1 (configuration not stated) | inactive: -6.86%
O=c1[nH]c(O)c(C=NC2CCCCC2)c(=O)[nH]1 | inactive: -6.75%
Cc1ccccc1CN1CCCN(Cc2ccc(Cl)cc2)S1(=O)=O | inactive: 5.52%
CCCC[N+]12CCC(CC1)C(C(O)(c1ccccc1)c1ccccc1)C2 (configuration not stated) | inactive: 8.22%
O=c1c2ccccc2nc(/C=C/c2ccccc2O)n1-c1ccc(Br)cc1 | inactive: -1.59%
N=C1c2ccccc2CN1NC(=O)c1ccco1 | inactive: 14.1%
COc1cc(/C=C(/C)[N+](=O)[O-])ccc1OCc1ccccc1Cl | inactive: 29.2%
O=C(Cc1ccccc1[N+](=O)[O-])N1CCN(Cc2ccc3c(c2)OCO3)CC1 | inactive: -0.633%
Clc1ccccc1C1NCc2ccccc2-n2cccc21 (configuration not stated) | inactive: 8.57%
CSc1ccc(CNC(C)C(O)c2ccccc2)cc1 (configuration not stated) | inactive: 4.45%
O=[N+]([O-])c1ccc(N2CCNCC2)cc1Sc1ccccn1 | inactive: 3.46%
CC(C)N1CCN(Cc2cc3c(cc2Cl)OCO3)CC1CCO (configuration not stated) | inactive: -1.83%
C[C@]12CCC3C(CC[C@H]4C[C@H](O)CC[C@]34C)C1C[C@@H](O)[C@@H]2O (some centres not stated) | inactive: -7.18%
O=C1CSC2(CN3CCC2CC3)N1 (configuration not stated) | inactive: 22.4%
Cn1c(C(=O)O)c(CC(=O)N2CCN(Cc3ccccc3)CC2)c2ccccc21 | inactive: 17.6%
CN1c2ccc([N+](=O)[O-])cc2CC2(C(=O)NC(=O)N(c3ccc(Br)cc3)C2=O)C1c1ccccc1 (configuration not stated) | inactive: -3.88%
N=C1c2ccccc2CN1CC(=O)c1ccccc1 | inactive: -14.9%
COc1cc2c(C(=O)N3CCN(C)CC3)c(C)n(C)c2cc1Br | inactive: -4.8%
CC(=O)N1CC(=O)Nc2ccc(Cl)cc2C1c1ccccc1 (configuration not stated) | inactive: -2.01%
Cc1cc(Br)c(NC(=O)CN2CC=C(c3ccccc3)CC2)c(Br)c1 | inactive: 13.2%

SMILES | growth rescue (activation)
Cc1ccc(NC(=S)NCCc2cnc[nH]2)cc1C | inactive: -5.36%
Cc1c2cnn(CC(=O)N3CCC4(CC3)OCCO4)c(=O)c2c(C)n1Cc1ccccc1F | inactive: -4.17%
O=C1CN(C(=O)COC(=O)Cc2ccccc2)c2ccccc2N1 | inactive: 5.46%
C#C[C@]1(O)CCC2C3C(=O)C=C4C(Cl)=CCC[C@]4(C)C3CC[C@@]21C (some centres not stated) | inactive: 1.35%
O=C(NC1CCCCC1)Oc1cc2oc(=O)sc2cc1Cl | inactive: -56.9%
CCn1ccnc1CN1CCCC(C(=O)c2ccc(OC)cc2OC)C1 (configuration not stated) | inactive: 3.58%
C[C@]12CC[C@H](O)CC1=C([N+](=O)[O-])CC1C2CC[C@@]2(C)C1CC[C@@H]2O (some centres not stated) | inactive: -5.61%
CN(C)c1ccc(/C=C2/C(=N\O)C3CCN2CC3)cc1 | inactive: 0.153%
O=C1NC(=O)N(c2ccc(F)cc2)C(=O)/C1=C/c1ccsc1 | inactive: 15.8%
Cc1ccccc1-n1c(/C=C/c2ccc(O)cc2)nc2ccccc2c1=O | inactive: 17.3%
O=C(O)c1ccc(/C=C/c2nc3ccccc3c(=O)n2-c2ccc(Br)cc2)cc1 | inactive: 0.26%
c1cncc(CNC2CCCC2)c1 | inactive: -6.11%
Oc1ccc(C[C@H]2NCCc3cc(O)c(O)cc32)cc1O | inactive: 5.05%
C[C@]12CCC3C(CC[C@H]4[C@H](O)[C@H](O)CC[C@]34C)C1CCC2=O (some centres not stated) | inactive: 18.6%
C[C@]12CCC3C(CC[C@H]4C[C@H](O)CC[C@]34C)C1CC(=O)[C@@H]2O (some centres not stated) | inactive: 35%
O=C(Nc1ccccc1)c1c(O)c2c(n(Cc3ccco3)c1=O)CCCC2 | inactive: -18.1%
Cc1ccc(OCC(=O)N2CCN(Cc3ccc4c(c3)OCO4)CC2)cc1C | inactive: -4.53%
CC1=C[C@@H]2c3cccc4[nH]cc(c34)C[C@H]2N(C)C1 | inactive: -1.2%
Cc1ccc2c(c1)C1CN(C)CCC1N2C(=O)CCCN1C(=O)c2cccc3cccc(c23)C1=O (configuration not stated) | inactive: 4.65%
N=c1sccn1Cc1ccccc1F | inactive: -3.23%
CN(C)c1ccc(/C=C/c2cc[n+](C)c3ccccc23)cc1 | inactive: -27.9%
O=c1[nH]c(=O)n(-c2cccc(Cl)c2)c(O)c1C=NCCCN1CCOCC1 | inactive: 11.9%
O=C(c1c[nH]c2ccc(S(=O)(=O)N3CCOCC3)cc2c1=O)N1CCC2(CC1)OCCO2 | inactive: 6.63%

SMILES | growth rescue (activation)
CCOP(=O)(OCC)C(NC(=O)c1ccc(OC)cc1)C(Cl)(Cl)Cl (configuration not stated) | inactive: -0.704%
COCc1ccc(CN2CCCC(C(=O)c3sccc3C)C2)o1 (configuration not stated) | inactive: 0.892%
CC[n+]1c(SC)ccc2cc(OC)ccc21 | inactive: -8.14%
COCCCn1c(N)c(C(=O)Nc2ccccc2)c2nc3ccccc3nc21 | inactive: 8.08%
O=c1cccc2n1CC1CC2CN(S(=O)(=O)c2cc(Cl)ccc2Cl)C1 (configuration not stated) | inactive: 9.03%
C=CCn1c(O)c(C(C)=NCCCn2ccnc2)c(=O)[nH]c1=O | inactive: 5.99%
O=C(CCC(=O)N1CCC2(CC1)OCCO2)Nc1nnc(C2CCCCC2)s1 | inactive: 11.5%
CCCCn1c(O)c(C=NCCCN(CC)CC)c(=O)[nH]c1=O | inactive: 8.07%
COc1ccc(CC2C(=O)N(C)C(=O)N(C)C2=O)c(OC)c1 | inactive: -14.8%
CC12CN3CCN(CC(C3)/C1=N/NC(N)=O)C2 | inactive: 5.2%
CN1CCN(CC(=O)Nc2ccc([N+](=O)[O-])cc2C(=O)c2ccccc2)CC1 | inactive: 5.75%
CN(CCc1ccccc1)Cc1ccccc1[N+](=O)[O-] | inactive: 20.7%
Cc1ccc(-n2c(/C=C/c3cccs3)nc3ccccc3c2=O)cc1C | inactive: 2.36%
OCCN(CC#CC(O)(c1ccccc1)C1CCCC1)CCO (configuration not stated) | inactive: 1.6%
Nc1ccc2nonc2c1[N+](=O)[O-] | inactive: 3.6%
O=C(N/N=C/c1c(O)n(CCC2=CCCCC2)c(=O)[nH]c1=O)c1ccccc1 | inactive: 6.29%
COc1ccc(-n2c(O)c(C=NCc3ccc4c(c3)OCO4)c(=O)[nH]c2=O)cc1 | inactive: 10.7%
CC(=NCC1CCCO1)c1c(O)n(-c2ccccc2)c(=O)[nH]c1=O (configuration not stated) | inactive: -12%
C/C(=N\Nc1ccccc1)c1c(O)n(Cc2ccccc2)c(=O)[nH]c1=O | inactive: -7.1%
CCCC(=O)NC(Oc1ccc(OC)cc1)C(Cl)(Cl)Cl (configuration not stated) | inactive: 4.62%
C[C@]12CCC3C(CC[C@H]4C[C@H](O)CC[C@]34C)C1[C@@H](O)C[C@@H]2O (some centres not stated) | inactive: 3.03%
c1ccc(-c2cc(-c3ccccc3)[n+](-c3ccccc3)c(-c3ccccc3)c2)cc1 | inactive: -23.9%
CSc1ccc(CN2CCN(C(=O)COc3ccc(C)cc3)CC2)cc1 | inactive: 6.3% and inactive: -24.6%
